Experimental data reported in PubChem BioAssay AID1240 (Sanford-Burnham Center for Chemical Genomics, 2008).
The whole screen tested about 50,000 compounds, of which about 800 (1.6%) showed an effect of 50% or more. The list shows a part of the results.

These molecules were tested against Bcl-2-like protein 10 (Homo sapiens) (UniProt Q9HD36) (assay: TR3 peptide-Bcl-B binding displacers, biochemical primary FP assay, phenotype converters (AID 1240;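 further: 0% = Bcl-B with tracer peptide and DMSO and 100% = tracer peptide lacking Bcl-B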)). Conditions: GST-Bcl-B / FITC-TR3 peptide fluorescence polarization; stronger effect = higher value; compound at 3.75 mg/L.
Chain of UniProt Q9HD36 (Q9HD36 whole entry, looked up): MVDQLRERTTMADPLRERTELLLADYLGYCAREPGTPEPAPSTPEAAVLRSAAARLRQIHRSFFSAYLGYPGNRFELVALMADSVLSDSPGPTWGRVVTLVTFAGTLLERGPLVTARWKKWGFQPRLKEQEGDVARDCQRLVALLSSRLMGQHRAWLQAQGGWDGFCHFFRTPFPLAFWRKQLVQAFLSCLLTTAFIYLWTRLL

SMILES	displacement [%]
Cc1c(NC(=S)NC(=O)c2ccccc2Cl)cccc1-c1nc2ccccc2s1	-7.9
O=C(O)CCCCCCCCCCN1C(=O)/C(=C/c2cccc(Br)c2)SC1=S	-3.4
O=C(NCc1ccccc1Cl)c1c(F)cccc1F	-4.1
Clc1ccccc1Cc1noc(-c2ccccc2Cl)n1	10
COc1cccc(C(=O)Nc2ccc(-c3nc4cc(C)ccc4o3)c(O)c2)c1	-24.4
O=c1[nH]nc2c3cc([N+](=O)[O-])c(Cl)cc3n3c(c1-2)CCCCC3	8.9
O=C(Nc1ccc(Cl)cc1)c1ccc(OC2CSC2)cc1	-13.5
O=C(/C=C/c1cc(Br)cs1)Nc1cccc([N+](=O)[O-])c1	10.6
CCOC(=O)COc1ccc2c(c1)c(C(=O)OCC)c(C)n2C	7.8
Cc1ccc2nc(NC(=O)C3CC(O)CN3C(=O)OC(C)(C)C)sc2c1 (stereo unspecified)	6.2
OC(COc1ccc2ccccc2c1)CN1CCCC1 (stereo unspecified)	-3
O=C(/C=C/c1ccc([N+](=O)[O-])cc1)c1cccc(Br)c1	-5.8
CC(=O)C1=C(C)NC(c2ccc(Cl)cc2Cl)NC1c1ccc(Cl)cc1Cl (stereo unspecified)	-7.3
CCc1ccc(OCC(=O)Nc2ccc(-c3nc4cc(C)c(C)cc4o3)c(O)c2)cc1	118
CCOc1ccc(Nc2nc(-c3cccs3)cs2)cc1	1.8
COC(=O)c1ccccc1N1C(=O)c2ccc([N+](=O)[O-])cc2C1=O	-1.2
Cc1ccccc1NC(=O)CC1Sc2ccccc2NC1=O (stereo unspecified)	0.8
COc1ccc(-c2ccc(/C=N/n3cnnc3)o2)c([N+](=O)[O-])c1	14.5
CCOC(=S)N/C(=N/S(C)(=O)=O)c1ccccc1	8
CC(=O)N(C(C)=O)c1ccc(Sc2ccc(Oc3ccc(Sc4ccc(N(C(C)=O)C(C)=O)cc4)cc3)cc2)cc1	1.6
CCCC(=O)Nc1nnc(COc2ccc(C)c(C)c2)s1	16.2
Cc1cc(-c2ccccc2)sc1/C(O)=C/c1nc2ccccc2[nH]c1=O	112
Cc1cccc(C)c1OCC(=O)NCc1ccccc1	12.4

SMILES	displacement [%]
COc1ccccc1N1CCN(/N=C\c2cccc(Br)c2)CC1	-15.2
CCc1ccc(/C=C2/Sc3ccccc3C2=O)cc1[N+](=O)[O-]	12.6
O=C(O)/C=C/C(=O)Nc1nc(-c2ccc3ccccc3c2)cs1	-2.4
Clc1ccc(N2CCN(/N=C\c3ccc4c(c3)OCO4)CC2)cc1	-7.4
COc1ccc2c(c1[N+](=O)[O-])CCC/C2=N\OC(=O)c1ccccc1	11.6
COc1ccc(CCNC(=O)C(=O)NCC(C)C)cc1	6.1
Cc1ccc(/C=N/c2ncn[nH]2)c(O)c1	-1.6
O=C(Nc1ccccc1)Nc1nnc(COc2ccccc2)s1	-5.7
CCCCSc1nnc2c(n1)OC1(Nc3ccccc3-2)C(=O)Nc2ccc(Br)cc21 (stereo unspecified)	-5.4
O=C(NNC(=O)c1ccc(Oc2ccc(C(=O)NNC(=O)c3ccncc3)cc2)cc1)c1ccncc1	2.7
CC1(C)C(C=C(Cl)Cl)C1C(=O)Nc1ccc(C(=O)O)cc1 (stereo unspecified)	3.7
O=C(CC(c1ccc(Cl)cc1)S(=O)(=O)c1ccccc1)c1ccccc1 (stereo unspecified)	-13.7
COC(=O)CN1C(=O)C(=Cc2ccncc2)SC1=S	13.9
Cc1sccc1/C=N/NC(=O)c1cccnc1	2.8
COc1ccccc1CNC(=O)COc1ccc(Cl)cc1C	-9.4
O=C(O)CCC(=O)N1N=C(c2ccccc2)CC1c1cccs1 (stereo unspecified)	32.4
COc1ccc(NC(=O)CN(c2cccc([N+](=O)[O-])c2)S(=O)(=O)c2ccccc2)cc1	6.8
O=C(/C=C/c1cc(Br)cs1)Nc1cccc(C(F)(F)F)c1	6.5
O=C(ON1C(=O)C2C3c4ccccc4C(c4ccccc43)C2C1=O)c1ccccc1 (stereo unspecified)	2.4
COc1ccc(CCNC2CC(=O)N(c3ccc(F)cc3)C2=O)cc1 (stereo unspecified)	1.9
Clc1ccc(-c2nc3ccc(N=Cc4ccco4)cc3[nH]2)c(Cl)c1	-9.8
Cc1ccc(N(CC(=O)Nc2ccccc2Cl)S(C)(=O)=O)cc1Cl	10
CC(=O)N1CCN(c2cc(N3CCC(C)CC3)c(F)cc2[N+](=O)[O-])CC1	-4.1

SMILES	displacement [%]
COc1ccc(CCC(=O)Nc2ccc3c(c2)OCCO3)cc1	-10.4
COCc1cc(C)nc(N/N=C/c2c[nH]c3ccccc23)c1C#N	-5.4
CCCCOC(=O)C1=C(C)NC2=C(C(=O)CC(C)(C)C2)C1c1ccc(C)cc1 (stereo unspecified)	1.8
COc1cccc(OCC(=O)NNC(=O)COc2ccccc2OC)c1	-2.8
O=S(=O)(Nc1cccc(C(F)(F)F)c1)c1ccc2ccccc2c1	8.8
C/C(=N\NC(=O)c1cc(C)[nH]n1)c1ccc2ccccc2c1O	-15
CCOC(=O)c1c(NC(=O)c2c(-c3ccccc3)noc2C)sc(C(=O)N(CC)CC)c1C	-1.1
C=CS(=O)(=O)c1ccc(C(C)(C)C)cc1	4.8
Cc1cc2nn(-c3ccccc3)nc2cc1NC(=O)/C=C/c1ccccc1	5.1
COCCOC(=O)C1=C(C)NC(C)=C(C(=O)OCCOC)C1c1ccc(-c2cccc(Br)c2)o1	7.3
O=[N+]([O-])c1cc(-c2nnc(-c3ccc(Br)o3)o2)ccc1Cl	-11
Cc1ccc(-c2nnc(SCC(=O)Nc3ccc(F)cc3)o2)cc1	7.8
CC1(C)CC(NS(=O)(=O)c2ccc3ccccc3c2)CC(C)(C)N1	-6.5
CCCCc1ccc(-c2csc(/C(C#N)=C/c3ccc(O)c(OC)c3)n2)cc1	2.4
CCOC(=O)c1c(NC(=O)CSc2nccn2C)sc2c1CCCC2	16.6
O=C(Nc1ccc(NC(=O)c2ccc([N+](=O)[O-])cc2Cl)cc1)c1ccco1	-2.4
CCOc1ccc2cc(C(=O)c3ccccc3)c(=O)oc2c1	6.5
CCCOc1ccc(N2C(=O)CC(N(CCc3ccccc3)C(=O)/C=C/C(=O)O)C2=O)cc1 (stereo unspecified)	12.6
CCC12CC3CC(C1)CC(C(=O)N/N=C1/CN4CCC1CC4)(C3)C2	-8
COc1ccc(NC(=O)C(=O)NCC2CCCO2)cc1 (stereo unspecified)	-1.6
COC(=O)c1ccc(C2C(C(=O)OCCOc3ccccc3)=C(C)NC3=C2C(=O)CCC3)cc1 (stereo unspecified)	-33.1
COC(=O)c1ccc(NC(=O)COc2c(C)cccc2C)cc1	-13.3
O=C(N=Nc1c(Cl)cc(Cl)cc1Cl)c1ccc(-n2c(O)c3ccccc3c2O)cc1	7.6

SMILES	displacement [%]
COc1ccc2nc(SCC(=O)Nc3cc(C)ccc3C)[nH]c2c1	-8.5
CCCC(C)NS(=O)(=O)c1cc(Cl)ccc1Cl (stereo unspecified)	14.3
Cc1cc(C(N)=O)c(-c2ccccc2)o1	9
C=CCN1C(=O)/C(=C\c2ccc(OCCOCCOc3ccc(C)cc3)cc2)SC1=S	9
O=C(c1cccc([N+](=O)[O-])c1)c1ccc2c(c1)C(=O)N(N1C(=O)c3ccccc3C1=O)C2=O	0.5
O=C(N/N=C/c1c(F)cccc1Cl)c1ccc(Br)cc1	7.9
NC(=O)NC(c1ccccc1)c1cccc(Cl)c1 (stereo unspecified)	0.2
Cc1onc(-c2c(Cl)cccc2Cl)c1C(=O)NCc1ccc(Cl)cc1	13.1
COc1ccc2[nH]c3c(c2c1)CCCC3=O	-0.9
Nc1ccc(Br)c(NC(=O)c2ccccc2)c1	3
O=C(O)/C=C\C(=O)Nc1ccc2c(c1)Cc1ccccc1-2	2.4
CCN1C(=O)/C(=C\c2cc(Br)ccc2OCc2ccccc2)SC1=S	3.3
O=S(=O)(c1ccc(Br)cc1Br)n1cnc2ccccc21	5
COc1ccccc1NC(=O)COc1ccc(C)cc1	-1.1
Cc1ccc(NC(=O)NC(C)(C)C)cc1	6.8
COc1cc(/C=N/n2cnnc2)ccc1OCc1cccc2ccccc12	46.4
N#C/C(=C\c1cn(CC(=O)Nc2ccccc2)c2ccccc12)c1nc2ccccc2[nH]1	5
Oc1ccc(Br)cc1/C=N/Nc1ccccn1	-15.9
CCOC(=O)c1c(C)nc(-c2ccccc2)nc1NC(C)=O	0.1
Cc1cc(Br)cc(C)c1NC(=O)c1ccc2c(c1)OCCO2	5.4
COc1ccc(N(C(C)C(=O)N/N=C/c2ccc(N(C)C)c(Br)c2)S(C)(=O)=O)cc1 (stereo unspecified)	1.9
CCOc1cc(/C=c2/sc3nc4ccccc4n3c2=O)ccc1OS(=O)(=O)c1ccc(C)cc1	14.1
CC(=O)N1c2ccc(Cl)cc2C2C=CCC2C1c1cccc2ccccc12 (stereo unspecified)	-10.2

SMILES	displacement [%]
O=c1cc(Nc2ccc(Br)cc2)c2ccccc2n1-c1ccccc1	-5.3
O=C1c2ccccc2C(=O)N1CCCCN(C(=O)c1cccc([N+](=O)[O-])c1)c1ccc(F)cc1F	16.1
Cn1nnnc1NC(=O)c1ccccc1F	9.6
Cc1ccc(OCCOc2ccc(Cl)cc2C=O)cc1	-0.6
CCOc1ccccc1NS(=O)(=O)Cc1ccccc1	7.5
CCCOc1ccc(C(C)=O)cc1CC(C(N)=O)C(N)=O	-8
Cc1cc(C)nc(/N=C(\N)N2CCc3ccccc3C2)n1	-1.9
C=CCN(CC=C)C(=O)CCN1C(=O)c2ccccc2C1=O	-7.3
NC(=O)c1c(NC(=O)C2C3C=CC(C3)C2C(=O)O)sc2c1CCCC2 (stereo unspecified)	-9.3
Cc1ccc(OCC(=O)NCc2ccc(F)cc2)c(C)c1	-1.7
Cc1ccccc1OCCCCN1CCCC1	1.1
CC1=C(C#N)c2nc(N)c(C#N)c(C)c2/C1=C\c1ccc(-c2cccc([N+](=O)[O-])c2)o1	-4.6
COC(=O)C1=C(C)NC(=O)NC1c1cc(OC)c(OC)cc1OC (stereo unspecified)	-4.2
O=C(COc1ccc(Cl)cc1)Nc1ccccc1C(F)(F)F	-7.8
CCOC(=O)C1=C(C)NC(SC)=NC1c1ccc(OC)cc1 (stereo unspecified)	-15
O=C(Nc1nc(-c2ccc3ccccc3c2)cs1)c1ccncc1	5.9
Cc1c(C(=O)NC(c2ccccc2)c2ccccc2)cccc1[N+](=O)[O-]	-1.5
O=C(Nc1ccc(Cl)cc1Cl)c1nn2c(c1Br)NC(c1ccccc1)CC2C(F)(F)F (stereo unspecified)	6.2
O=C(O)/C=C\C(=O)Nc1ccccc1Br	10.3
